# In US9486506B2 (Novo Nordisk A/S, priority 2011, dated 2016):
# At least one structure is not confirmed: it was looked up by name or label, or the drawing left a doubt. Numbered stars: 1 amine (or outer) side, 2 acyl side, 3 side chain; on linkers, the order of the positions; unused ones are H or OH. Side chains are listed from the residue outwards. Peptide text beside a SMILES is read from it. * marks the point of attachment. C18 diacid = O=C(O)CCCCCCCCCCCCCCCCC(=O)*; C16 diacid = O=C(O)CCCCCCCCCCCCCCC(=O)*; γGlu = O=C(O)[C@H](CCC(=O)[*:2])N[*:1]; AEEA = NCCOCCOCC(=O)O
# Assay: Assay (II) ThT fibrillation assay for physical stability
# Format: physicochemical
# Conditions: pH 7.5
row,Structure (SMILES),ThT assay [Lagtime]
1,"CC(C)C[C@H](NC(=O)[C@H](Cc1ccc(O)cc1)NC(=O)[C@H](CCCCN)NC(=O)[C@H](CO)NC(=O)[C@H](Cc1ccc(O)cc1)NC(=O)[C@H](CC(=O)O)NC(=O)[C@H](CO)NC(=O)[C@@H](NC(=O)[C@H](Cc1ccccc1)NC(=O)[C@@H](NC(=O)CNC(=O)[C@H](CCC(N)=O)NC(=O)[C@H](CO)NC(=O)[C@@H](N)Cc1c[nH]cn1)[C@@H](C)O)[C@@H](C)O)C(=O)N[C@@H](CCC(=O)O)C(=O)N[C@@H](CO)C(=O)N[C@@H](CCCNC(=N)N)C(=O)N[C@@H](CCCNC(=N)N)C(=O)N[C@@H](C)C(=O)N[C@@H](CCC(N)=O)C(=O)N[C@@H](CC(=O)O)C(=O)N[C@@H](Cc1ccccc1)C(=O)N[C@H](C(=O)N[C@@H](CCCCNC(=O)CC[C@H](NC(=O)CC[C@H](NC(=O)COCCOCCNC(=O)CC[C@H](NC(=O)CCCCCCCCCCCCCCCCC(=O)O)C(=O)O)C(=O)O)C(=O)O)C(=O)N[C@@H](Cc1c[nH]c2ccccc12)C(=O)N[C@@H](CC(C)C)C(=O)N[C@@H](CC(C)C)C(=O)N[C@@H](CO)C(=O)N[C@H](C(=O)O)[C@@H](C)O)C(C)C [Example 1, N^ε24-[(4S)-4-carboxy-4-[[(4S)-4-carboxy-4-[[2-[2-[2-[[(4S)-4-carboxy-4-(17-carboxyheptadecanoylamino)butanoyl]amino]ethoxy]ethoxy]acetyl]amino]butanoyl]amino]butanoyl]-[Glu^15,Lys^24,Leu^27,Ser^28]-Glucagon]",45 h
2,"CC(C)C[C@H](NC(=O)[C@H](Cc1ccc(O)cc1)NC(=O)[C@H](CCCCN)NC(=O)[C@H](CO)NC(=O)[C@H](Cc1ccc(O)cc1)NC(=O)[C@H](CC(=O)O)NC(=O)[C@H](CO)NC(=O)[C@@H](NC(=O)[C@H](Cc1ccccc1)NC(=O)[C@@H](NC(=O)CNC(=O)[C@H](CCC(N)=O)NC(=O)[C@H](CO)NC(=O)[C@@H](N)Cc1c[nH]cn1)[C@@H](C)O)[C@@H](C)O)C(=O)N[C@@H](CCC(=O)O)C(=O)N[C@@H](CO)C(=O)N[C@@H](CCCNC(=N)N)C(=O)N[C@@H](CCCNC(=N)N)C(=O)N[C@@H](C)C(=O)N[C@@H](CCC(N)=O)C(=O)N[C@@H](CC(=O)O)C(=O)N[C@@H](Cc1ccccc1)C(=O)N[C@H](C(=O)N[C@@H](CCCCNC(=O)CC[C@H](NC(=O)CC[C@H](NC(=O)COCCOCCNC(=O)COCCOCCNC(=O)CC[C@H](NC(=O)CCCCCCCCCCCCCCC(=O)O)C(=O)O)C(=O)O)C(=O)O)C(=O)N[C@@H](Cc1c[nH]c2ccccc12)C(=O)N[C@@H](CC(C)C)C(=O)N[C@@H](CC(C)C)C(=O)N[C@@H](CO)C(=O)N[C@H](C(=O)O)[C@@H](C)O)C(C)C [Example 69, N^ε24-[(4S)-4-carboxy-4-[[(4S)-4-carboxy-4-[[2-[2-[2-[[2-[2-[2-[[(4S)-4-carboxy-4-(15-carboxypentadecanoylamino)butanoyl]amino]ethoxy]ethoxy]acetyl]amino]ethoxy]ethoxy]acetyl]amino]butanoyl]amino]butanoyl]-[Glu15,Lys24,Leu27,Ser28]-Glucagon]",45 h
3,"CC[C@H](C)[C@H](NC(=O)[C@H](CC(=O)O)NC(=O)[C@H](CC(C)C)NC(=O)[C@H](Cc1ccc(O)cc1)NC(=O)[C@H](CCCCN)NC(=O)[C@H](CO)NC(=O)[C@H](Cc1ccc(O)cc1)NC(=O)[C@H](CC(=O)O)NC(=O)[C@H](CO)NC(=O)[C@@H](NC(=O)[C@H](Cc1ccccc1)NC(=O)[C@@H](NC(=O)CNC(=O)[C@H](CCC(N)=O)NC(=O)[C@H](CO)NC(=O)[C@@H](N)Cc1c[nH]cn1)[C@@H](C)O)[C@@H](C)O)C(=O)N[C@@H](CCCNC(=N)N)C(=O)N[C@@H](CCCNC(=N)N)C(=O)N[C@@H](C)C(=O)N[C@@H](CCC(N)=O)C(=O)N[C@@H](CC(=O)O)C(=O)N[C@@H](Cc1ccccc1)C(=O)N[C@H](C(=O)N[C@@H](CCCCNC(=O)CC[C@H](NC(=O)CC[C@H](NC(=O)CC[C@H](NC(=O)CC[C@H](NC(=O)CCCCCCCCCCCCCCCCC(=O)O)C(=O)O)C(=O)O)C(=O)O)C(=O)O)C(=O)N[C@@H](Cc1c[nH]c2ccccc12)C(=O)N[C@@H](CC(C)C)C(=O)N[C@@H](CC(C)C)C(=O)N[C@@H](CO)C(=O)N[C@H](C(=O)O)[C@@H](C)O)C(C)C [Example 79, N^ε24-[(4S)-4-carboxy-4-[[(4S)-4-carboxy-4-[[(4S)-4-carboxy-4-[[(4S)-4-carboxy-4-(17-carboxyheptadecanoylamino)butanoyl]amino]butanoyl]amino]butanoyl]amino]butanoyl]-[Ile16,Lys24,Leu27,Ser28]-Glucagon]",45 h
4,"CC(C)C[C@H](NC(=O)[C@H](Cc1ccc(O)cc1)NC(=O)[C@H](CCCNC(=N)N)NC(=O)[C@H](CO)NC(=O)[C@H](Cc1ccc(O)cc1)NC(=O)[C@H](CC(=O)O)NC(=O)[C@H](CO)NC(=O)[C@@H](NC(=O)[C@H](Cc1ccccc1)NC(=O)[C@@H](NC(=O)CNC(=O)[C@H](CCC(N)=O)NC(=O)[C@H](CO)NC(=O)[C@@H](N)Cc1c[nH]cn1)[C@@H](C)O)[C@@H](C)O)C(=O)N[C@@H](CC(=O)O)C(=O)N[C@@H](C)C(=O)N[C@@H](CCCNC(=N)N)C(=O)N[C@@H](CCCNC(=N)N)C(=O)N[C@@H](C)C(=O)N[C@@H](CCC(N)=O)C(=O)N[C@@H](CC(=O)O)C(=O)N[C@@H](Cc1ccccc1)C(=O)N[C@H](C(=O)N[C@@H](CCCCNC(=O)CC[C@H](NC(=O)CC[C@H](NC(=O)COCCOCCNC(=O)COCCOCCNC(=O)CC[C@H](NC(=O)CCCCCCCCCCCCCCC(=O)O)C(=O)O)C(=O)O)C(=O)O)C(=O)N[C@@H](Cc1c[nH]c2ccccc12)C(=O)N[C@@H](CC(C)C)C(=O)N[C@@H](CC(C)C)C(=O)N[C@@H](CO)C(=O)N[C@H](C(=O)O)[C@@H](C)O)C(C)C [Example 84, N^ε24-[(4S)-4-carboxy-4-[[(4S)-4-carboxy-4-[[2-[2-[2-[[2-[2-[2-[[(4S)-4-carboxy-4-(15-carboxypentadecanoylamino)butanoyl]amino]ethoxy]ethoxy]acetyl]amino]ethoxy]ethoxy]acetyl]amino]butanoyl]amino]butanoyl]-[Arg12,Ala16,Lys24,Leu27,Ser28]-Glucagon] (H-HSQGTFTSDYSRYLDARRAQDFVK([γGlu-γGlu-AEEA-AEEA-γGlu-C16 diacid])WLLST-OH)",45 h
5,"CC(C)C[C@H](NC(=O)[C@H](Cc1ccc(O)cc1)NC(=O)[C@H](CCCCN)NC(=O)[C@H](CO)NC(=O)[C@H](Cc1ccc(O)cc1)NC(=O)[C@H](CC(=O)O)NC(=O)[C@H](CO)NC(=O)[C@@H](NC(=O)[C@H](Cc1ccccc1)NC(=O)[C@@H](NC(=O)CNC(=O)[C@H](Cc1c[nH]cn1)NC(=O)[C@H](CO)NC(=O)[C@@H](N)Cc1c[nH]cn1)[C@@H](C)O)[C@@H](C)O)C(=O)N[C@@H](CC(=O)O)C(=O)N[C@@H](CO)C(=O)N[C@@H](CCCNC(=N)N)C(=O)N[C@@H](CCCNC(=N)N)C(=O)N[C@@H](C)C(=O)N[C@@H](CCC(N)=O)C(=O)N[C@@H](CC(=O)O)C(=O)N[C@@H](Cc1ccccc1)C(=O)N[C@H](C(=O)N[C@@H](CCCCNC(=O)CC[C@H](NC(=O)CC[C@H](NC(=O)COCCOCCNC(=O)COCCOCCNC(=O)CC[C@H](NC(=O)CCCCCCCCCCCCCCCCC(=O)O)C(=O)O)C(=O)O)C(=O)O)C(=O)N[C@@H](Cc1c[nH]c2ccccc12)C(=O)N[C@@H](CC(C)C)C(=O)N[C@@H](CC(C)C)C(=O)N[C@@H](CO)C(=O)N[C@H](C(=O)O)[C@@H](C)O)C(C)C [Example 2, N^ε24-[(4S)-4-carboxy-4-[[(4S)-4-carboxy-4-[[2-[2-[2-[[2-[2-[2-[[(4S)-4-carboxy-4-(17-carboxyheptadecanoylamino)butanoyl]amino]ethoxy]ethoxy]acetyl]amino]ethoxy]ethoxy]acetyl]amino]butanoyl]amino]butanoyl]-[His^3,Lys^24,Leu^27,Ser^28]-Glucagon]",45 h
6,"CC(C)C[C@H](NC(=O)[C@H](Cc1ccc(O)cc1)NC(=O)[C@H](CCCCN)NC(=O)[C@H](CO)NC(=O)[C@@H](NC(=O)[C@H](CC(=O)O)NC(=O)[C@H](CO)NC(=O)[C@@H](NC(=O)[C@H](Cc1ccccc1)NC(=O)[C@@H](NC(=O)CNC(=O)[C@H](CCC(N)=O)NC(=O)[C@H](CO)NC(=O)[C@@H](N)Cc1c[nH]cn1)[C@@H](C)O)[C@@H](C)O)C(C)C)C(=O)N[C@@H](CCC(=O)O)C(=O)N[C@@H](CO)C(=O)N[C@@H](CCCNC(=N)N)C(=O)N[C@@H](CCCNC(=N)N)C(=O)N[C@@H](C)C(=O)N[C@@H](CCC(N)=O)C(=O)N[C@@H](CCC(=O)O)C(=O)N[C@@H](Cc1ccccc1)C(=O)N[C@H](C(=O)N[C@@H](CCCCNC(=O)CC[C@H](NC(=O)CC[C@H](NC(=O)CC[C@H](NC(=O)CC[C@H](NC(=O)CCCCCCCCCCCCCCCCC(=O)O)C(=O)O)C(=O)O)C(=O)O)C(=O)O)C(=O)N[C@@H](Cc1c[nH]c2ccccc12)C(=O)N[C@@H](CC(C)C)C(=O)N[C@@H](CC(C)C)C(=O)N[C@@H](CO)C(=O)N[C@H](C(=O)O)[C@@H](C)O)C(C)C [Example 50, N^ε24-[(4S)-4-carboxy-4-[[(4S)-4-carboxy-4-[[(4S)-4-carboxy-4-[[(4S)-4-carboxy-4-(17-carboxyheptadecanoylamino)butanoyl]amino]butanoyl]amino]butanoyl]amino]butanoy]-[Val10,Glu15,Glu21,Lys24,Leu27,Ser28]-Glucagon] (H-HSQGTFTSDVSKYLESRRAQEFVK([γGlu-γGlu-γGlu-γGlu-C18 diacid])WLLST-OH)",45 h
